According to PubChem BioAssay AID1508642 (National Center for Advancing Translational Sciences (NCATS), 2021):
In all, about 43,000 compounds went through this assay and about 200 (0.47%) were called active. Roughly 12% stayed inconclusive and do not appear here. Calls come from the whole dose curve; as a rule, active = well fitted cell-killing curve with a large enough effect; inconclusive = small, poorly fitted or top-dose-only effect, or effect the other way; inactive = flat fitted curve, though single readings scatter. The list shows a part of the results.

assay: Cell viability qHTS assay in S16 Pmp22-F2sN cells; conditions: S16 Pmp22-F2sN Schwann cells (luciferase reporters placed in the Pmp22 gene) viability, CellTiter-Glo, 24 h; series mostly up to 57.5 µM; activity change, negative = cytotoxicity: at the top concentration; note: nearly all actives have a fitted effect of over 65% in size
Outline: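 Rat S16 Schwann reporter line, 24 h treatment with library compounds delivered at 23 nL per well. Cell viability by CellTiter-Glo luminescence.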
% is set by controls: 0 for no effect and ±100 for the full control effect.

SMILES | activity change, negative = cytotoxicity
CCOc1ccc(C(=O)Nc2cccc(OCc3cc(=O)n4cc(C)sc4n3)c2)cc1 | inactive: 12.8%
CCCCOC(=O)c1cccc(NC(=O)c2cc3ccccc3o2)c1 | inactive: -15.5%
COc1cccc(CNCCSc2nnnn2C)c1OCc1ccccc1F | inactive: -9.36%
COc1cccc(N2CC(NC(=O)c3ccc(S(=O)(=O)N4CCCCC4)cc3)CC2=O)c1 (stereo not drawn) | inactive: 12.2%
COc1ccc(-c2nc3ccccc3o2)cc1NC(=O)COc1ccc(C(C)(C)C)cc1 | inactive: 3.13%
O=[N+]([O-])c1ccc(C(c2sc3nc(-c4ccco4)nn3c2O)N2CCN(c3cccc(Cl)c3)CC2)cc1 (stereo not drawn) | inactive: 0.564%
Cc1ccc(C)c(Cn2nc(-c3cc(C)ccc3C)ccc2=O)c1 | inactive: 1.92%
CCOC(=O)c1c(S(=O)(=O)N2CCCC(C(=O)N3CCN(c4ccccc4)CC3)C2)c(C)n(C)c1C (stereo not drawn) | inactive: -0.671%
Cc1ccccc1OC(=O)CSc1nnc(-c2cccs2)o1 | inactive: -3.17%
Cn1c(-n2cccc2)c(-c2c(-c3ccccc3)[nH]c3c2c(=O)[nH]c(=O)n3C)c(=O)[nH]c1=O | inactive: 7.71%
Cc1ccc2c(c1)N(CC(=O)NCCc1ccc(Cl)cc1)C(=O)c1cccnc1O2 | inactive: -0.149%
CCOC(=O)c1[nH]c(C)c(C(=O)NC(CC)Cc2ccccc2)c1C (stereo not drawn) | inactive: -17.9%
O=C(CN1C(=O)COc2ccc(S(=O)(=O)NC3CCCC3)cc21)Nc1ccc(Cl)cc1 | inactive: -0.655%
O=C(Nc1cccc(-c2cn3cccnc3n2)c1)c1cc(Br)ccc1Cl | inactive: -21.5%
Cc1ccc(C)c(NC(=O)Cn2c(=O)n(CC3CCCO3)c(=O)c3ccccc32)c1 (stereo not drawn) | inactive: 5.67%
CCN1CCN(c2ncnc3c2cnn3-c2ccc(C)c(C)c2)CC1 | inactive: -4.97%
CC(=O)Nc1ccc(NC(=O)CSc2nc3ccccc3nc2N2CCCCC2)cc1 | inactive: 25.8%
COc1ccc(C(=O)Nc2cc(C)c(O)c(-c3nc4ccccc4s3)c2)cc1OC | inactive: -10.2%
CCOc1ccc(CNC(=O)c2ccc(CS(=O)Cc3ccc(Cl)cc3)o2)cc1 (stereo not drawn) | inactive: 12.5%
CCN(Cc1ccccc1)C(=O)CN1C(=O)COc2ccc(S(=O)(=O)NC3CCCC3)cc21 | inactive: 2.22%
COc1cccc(CNC(=O)c2ccc3c(c2)nc2n3CCOC2)c1 | inactive: 5.68%
Cc1ccc(-c2nnn3c2nc(NCC(C)c2ccccc2)c2ccccc23)cc1 (stereo not drawn) | inactive: -20.5%
Cc1ccc(CN2COc3ccc4c(-c5ccccc5)cc(=O)oc4c3C2)cc1 | inactive: 7.19%
Cc1cc(C)nc(-n2nc(C)c3c2N(C)C(=O)CC3c2ccc(Cl)cc2)n1 (stereo not drawn) | inactive: -0.476%

SMILES | activity change, negative = cytotoxicity
Cc1c(C(=O)Nc2cccc(Cl)c2)oc2ccc(S(=O)(=O)N3CCCCCC3)cc12 | inactive: -0.57%
Cc1nnc(NC(=O)c2nc(SCc3ccccc3F)ncc2Cl)s1 | inactive: 0.21%
COc1ccccc1NC(=O)CN1C(=O)C2(SCC(=O)N2c2ccc(F)c(F)c2)c2ccccc21 (stereo not drawn) | inactive: 8.34%
O=C(NCc1ccccc1)C(=O)Nc1ccc2nc3n(c(=O)c2c1)CCCCC3 | inactive: 11.6%
CCc1cc(C(=O)NCc2ccccc2)no1 | inactive: 0.0206%
CC(NC(=O)Cc1ccc(NC(=O)N2CCSc3ncccc32)cc1)c1ccccc1 (stereo not drawn) | inactive: 1.64%
Cc1cc(-c2ccc(S(=O)(=O)Nc3ccccc3F)s2)on1 | inactive: -0.628%
CCc1ccc(NC(=O)CCCc2nnc3n(CC(C)C)c(=O)c4sccc4n23)cc1 | inactive: 3%
Cc1nnc(NC(=O)CSc2nccn2Cc2ccc(F)cc2)s1 | inactive: -0.526%
CC(=O)Nc1ccc(S(=O)(=O)NCCc2cn3ccsc3n2)cc1 | inactive: -1.02%
CCC(=O)N1CCc2cc(OC)c(OC)cc2C1COc1ccccc1OC (stereo not drawn) | inactive: -0.286%
Cc1cccc(OCc2ccc(-c3nc(C#N)c(NCc4cccnc4)o3)o2)c1 | inactive: -28.8%
COC(=O)c1ccc(C2c3c(-c4ccccc4O)n[nH]c3C(=O)N2Cc2ccncc2)cc1 (stereo not drawn) | inactive: -26%
COc1ccc(-c2nc(CNS(=O)(=O)c3ccc(Br)cc3)cs2)cc1 | inactive: -6.63%
CC(C)c1nn2c(=O)cc(COC(=O)c3ccccc3NC(=O)COc3ccccc3)nc2s1 | inactive: -1.3%
Cc1ccc(CNC(=O)C2CCN(S(=O)(=O)c3ccc(F)cc3)CC2)cc1 | inactive: -5.12%
CC(=O)N1CCc2c(sc3c2c(=O)n(-c2ccc(C)cc2)c(=O)n3Cc2c(F)cccc2Cl)C1 | inactive: 10.8%
COc1ccccc1CNC(=O)c1cccn1-c1nnc(N2CCCCC2)s1 | inactive: 2.7%
COc1ccc(CN2CCc3c(c(=O)n4ncc(C(=O)N5CCN(c6ccc(F)cc6)CC5)c4n3C)C2)cc1 | inactive: -29.9%
COC(=O)c1c(NC(=O)Cc2coc3cc(C)ccc23)sc2c1CCCC2 | inactive: -2.21%
CCc1cccc(NC(=O)CN2Cc3ccccc3C2=O)c1 | inactive: 4.57%
CCOc1ccc(C2CC(=O)Nc3cc4c(cc32)OCO4)cc1OC (stereo not drawn) | inactive: -1.9%
COc1ccc(-c2cc(C)no2)cc1S(=O)(=O)NCc1cccs1 | inactive: -19.9%
COc1cc(CNC(=O)C2CCCCN2S(=O)(=O)c2ccc(F)cc2)cc(OC)c1OC (stereo not drawn) | inactive: 0.153%
